Experimental data as given in the antibiotic and cytotoxicity screens of Wong et al. (2023).
The other results are listed elsewhere or left out.

The compounds below were run on S. aureus RN4220 (assay: growth inhibition call (relative growth <= 0.2)). Conditions: 50 µM.

Growth inhibition call, inactive:
Cc1ccc(S(=O)(=O)N(C)C[C@@H]2OCCCC[C@@H](C)Oc3ccc(NC(=O)CCC(F)(F)F)cc3C(=O)N([C@@H](C)CO)C[C@H]2C)cc1
CC(=O)OC1CCC2(C)C(CCC3(C)C2C2OC2C24OC(=O)C5(CCC(C)C(C)C52)CCC34C)C1(C)C (stereo not given)
O=C(NCCCN1CCOCC1)[C@@H]1[C@@H](CO)[C@@H]2Cn3c(cccc3=O)[C@H]1N2C(=O)C1CCCC1
C[C@@H]1CN([C@@H](C)CO)C(=O)c2cccc(NC(=O)Nc3ccc(C(F)(F)F)cc3)c2O[C@H]1CN(C)S(C)(=O)=O
O=C(NCC(F)(F)F)[C@H]1[C@H](CO)[C@H]2Cn3c(cccc3=O)[C@H]2N1C(=O)C1CCC1
C[C@@H]1CN([C@H](C)CO)C(=O)Cc2cc(NC(=O)Cc3ccccc3)ccc2O[C@@H]1CN(C)C(=O)Nc1cccc2ccccc12
Cc1ccc(S(=O)(=O)N(C)C[C@H]2Oc3ccc(NS(=O)(=O)c4cccs4)cc3C(=O)N([C@@H](C)CO)C[C@@H]2C)cc1
C[C@@H]1CN([C@H](C)CO)C(=O)c2cc(/C=C/c3ccccc3)cnc2O[C@@H]1CN(C)C(=O)CN1CCOCC1
C=C(/C=C/CNS(=O)(=O)c1ccc(C)cc1)[C@H](O)[C@H]1CCCN1S(=O)(=O)c1ccccc1[N+](=O)[O-]
C[C@@H]1CN([C@H](C)CO)C(=O)Cc2cc(NS(=O)(=O)c3cccs3)ccc2O[C@H]1CN(C)S(=O)(=O)c1cccs1
